# Data: PubChem BioAssay AID720708 (National Center for Advancing Translational Sciences (NCATS), 2013)
# About 660 (0.18%) of roughly 360,000 compounds were called active. Inconclusive results, whose numbers are uncertain, are shown with a selection of clear calls. Calls come from the whole dose curve; as a rule, active = well fitted inhibition curve with a large enough effect; inconclusive = small, poorly fitted or top-dose-only effect; inactive = no such curve, though single readings can be large or run the other way. Potencies of inconclusive entries are left out as doubtful fits.
# Molecular target: Rap guanine nucleotide exchange factor 4 (Homo sapiens) (UniProt Q8WZA2)
# Assay: qHTS for Antagonist of cAMP-regulated guanine nucleotide exchange factor 2 (EPAC2): primary screen; note: nearly all actives have a fitted effect of over 45% in size
# Details: EPAC2 GEF exchange of Rap1B-BODIPY-GDP, fluorescence; activity, negative = inhibition: at 114 µM (top of the series) unless noted
# % is set by controls: 0 for no effect and ±100 for the full control effect; potency is the fitted concentration of half-maximal effect; tags give direction and shape of the fitted curve.
# Chain of UniProt Q8WZA2 (Q8WZA2 whole entry, looked up): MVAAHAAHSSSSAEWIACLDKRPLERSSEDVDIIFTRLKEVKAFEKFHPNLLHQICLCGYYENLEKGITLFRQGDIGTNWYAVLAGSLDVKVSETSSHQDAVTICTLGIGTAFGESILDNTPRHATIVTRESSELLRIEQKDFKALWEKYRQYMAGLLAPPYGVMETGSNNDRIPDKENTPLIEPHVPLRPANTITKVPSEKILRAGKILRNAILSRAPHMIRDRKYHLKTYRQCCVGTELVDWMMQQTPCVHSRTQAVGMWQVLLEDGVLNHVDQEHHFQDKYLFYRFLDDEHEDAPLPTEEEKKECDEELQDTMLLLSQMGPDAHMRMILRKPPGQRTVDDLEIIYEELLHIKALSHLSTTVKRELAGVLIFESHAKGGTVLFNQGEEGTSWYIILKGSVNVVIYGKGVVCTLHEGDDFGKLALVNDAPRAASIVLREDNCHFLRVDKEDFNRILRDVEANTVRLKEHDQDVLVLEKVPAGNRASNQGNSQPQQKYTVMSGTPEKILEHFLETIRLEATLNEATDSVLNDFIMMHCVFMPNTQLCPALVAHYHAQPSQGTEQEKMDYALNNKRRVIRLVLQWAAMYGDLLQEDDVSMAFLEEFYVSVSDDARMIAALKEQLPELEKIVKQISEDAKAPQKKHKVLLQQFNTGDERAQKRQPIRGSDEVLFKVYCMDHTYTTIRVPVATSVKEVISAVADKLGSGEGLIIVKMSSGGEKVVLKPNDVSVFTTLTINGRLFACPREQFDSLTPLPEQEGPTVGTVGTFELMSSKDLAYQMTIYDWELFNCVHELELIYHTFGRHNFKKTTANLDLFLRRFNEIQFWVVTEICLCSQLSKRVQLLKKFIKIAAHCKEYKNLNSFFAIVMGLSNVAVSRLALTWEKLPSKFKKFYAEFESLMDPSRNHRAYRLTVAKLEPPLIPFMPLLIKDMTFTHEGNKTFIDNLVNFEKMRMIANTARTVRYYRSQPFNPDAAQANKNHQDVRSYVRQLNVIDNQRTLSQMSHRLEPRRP
Structure (SMILES),"activity, negative = inhibition",Potency
COc1ccc(-c2cn3cccnc3n2)cc1NC(=O)C1CCCC1,inactive: 5.94%,–
CN(Cc1ccco1)c1ncnc2ccc(-c3ccccc3Cl)cc12,–,"inconclusive [inhibitor, full curve]"
CCOc1ccc(Br)cc1C1=CC(=O)C[C@H](c2ccc(OC)cc2)C1,–,"inconclusive [inhibitor, full curve, poor fit]"
O=C(CN1CCN(c2ccccn2)CC1)Nc1cccc(S(=O)(=O)N2CCCC2)c1,–,"inconclusive [inhibitor, single point]"
COc1ccc2sc(NC(C)=O)nc2c1,inactive: -2.06%,–
CCOc1ccccc1NC(=O)c1csc(C)c1C,–,"inconclusive [inhibitor, partial curve]"
CC(=O)c1ccc(N=Nc2ccc(N)cc2)cc1,–,"inconclusive [inhibitor, single point]"
COc1cnc(-c2ccccn2)nc1Oc1ccc(F)cc1F,–,"inconclusive [inhibitor, partial curve]"
O=C(OCc1ccccn1)c1ccc(COc2ccc3ccccc3c2)o1,–,"inconclusive [inhibitor, full curve, poor fit]"
N#CC(=C1C=C(Br)C(=NO)C=C1Cl)c1cccc2ccccc12,–,"inconclusive [inhibitor, partial curve]"
S=C(NCCc1cccc(Cl)c1)NC1CCCCC1,inactive: -4.25%,–
O/N=C\c1ccccc1Oc1ccc(F)cc1,–,"inconclusive [inhibitor, partial curve]"
COc1ccc(OC)c(CNc2ccc3c(c2)nc(C)n3C)c1,inactive: 3.29%,–
CCc1nc2c(OCc3ccc(Cl)cc3)cccn2c1N(C)C(=O)c1ccccc1F,–,"inconclusive [inhibitor, partial curve]"
CN(C)C(=O)CSc1nnc2sc3ccccc3n12,inactive: 10.2%,–
CN(C(=O)CSc1nnc(Cc2ccccc2F)n1N)C1CCCCC1,inactive: -2.96%,–
N#C/C(=N\Nc1cccc([N+](=O)[O-])c1)C(=O)c1ccc(Br)cc1,–,"inconclusive [inhibitor, partial curve]"
Cc1nn(C)c(Nc2ccc(Br)cc2)c1Br,–,"inconclusive [inhibitor, full curve]"
Clc1ccc(-c2nnc(CSc3nnc(-c4cccs4)n3Cc3ccccc3)o2)cc1,inactive: -25.2%,–
CC(=O)c1cc2c(cc1NS(=O)(=O)c1ccc(F)cc1)OCO2,–,"inconclusive [inhibitor, full curve]"
Oc1ccc2ccccc2c1CNc1ccc2ccccc2c1,–,"inconclusive [inhibitor, partial curve]"
Cc1ccc2c(c1C)-c1c(ccc(C)c1C)C(=O)C2=O,–,"inconclusive [inhibitor, partial curve]"
C=CCC[C@@H](Cc1ccc(F)cc1)C(=O)OC[C@@H](Cc1c[nH]c2ccccc12)NC(=O)[C@@H](CC=C)CC(=O)NCCO,–,"inconclusive [inhibitor, partial curve]"
Cc1ccc(C2C(/C=C3/SC(=S)NC3=O)=C(c3cccs3)Oc3ccccc32)cc1 (stereo not given),–,"inconclusive [inhibitor, partial curve]"

Structure (SMILES),"activity, negative = inhibition",Potency
O=C1NC(=O)/C(=C/c2cccc3ccccc23)S1,–,"inconclusive [inhibitor, partial curve]"
COC(=O)c1cc(S(=O)(=O)N(C)c2ccc(C)c(C)c2)c[nH]1,–,"inconclusive [inhibitor, partial curve]"
O=C(NC(=S)Nc1ccc(CN2CCCCC2)cc1)c1cc2ccccc2o1,inactive: 18.2%,–
Cc1ccc2nc(-c3ccc(Cl)cc3)c(Cc3ccccn3)n2c1,–,"inconclusive [inhibitor, partial curve]"
COc1nc(C)nc(C)c1Oc1ccc(Cl)cc1Cl,–,"inconclusive [inhibitor, partial curve]"
CC(=O)NC12CC3CC(C1)CC(C(=O)NCC(=O)Nc1c(C)cc(C)cc1C)(C3)C2,–,"inconclusive [inhibitor, partial curve]"
COc1ccc(CNC(=O)COC(=O)c2cccn2C)cc1,inactive: -8.89%,–
COc1ccc(N2C(=O)c3ccccc3NC(=O)C2C(=O)NCCc2ccccc2F)cc1 (stereo not given),inactive: 0.762%,–
CCOc1ccc(-c2csc(/C(C#N)=C\c3ccc(O)c([N+](=O)[O-])c3)n2)cc1,–,"inconclusive [inhibitor, single point]"
CCC(C)c1ccccc1NC(=O)C(C)N(C)Cc1cccc(OC)c1 (stereo not given),–,"inconclusive [inhibitor, partial curve]"
Oc1ccc(-c2n[nH]c(C(F)(F)F)c2-c2ccccc2)c(O)c1,–,"inconclusive [inhibitor, partial curve]"
O=C(Nc1cc(Br)ccc1O)c1cc(-c2ccc3c(c2)OCO3)on1,–,"inconclusive [inhibitor, single point]"
C=C1c2cccc(OC)c2O[C@H](C(=O)OCC)[C@@H]1CC(CC)CCCC (stereo not given in full),–,"inconclusive [inhibitor, full curve]"
c1ccc(-c2nc(NCc3ccco3)c3oc4ccccc4c3n2)cc1,inactive: -16.9%,–
O=C(NCc1nc2ccccc2[nH]1)C1=C[C@H](c2csc3ccccc23)C[C@H](OCc2ccc(CO)cc2)O1,inactive: 4.07%,–
Cc1ccc(C2=N/C(=C\c3c(C)nn(-c4ccccc4)c3N3CCCC3)C(=O)O2)cc1,inactive: 35.8%,–
O=C1CC(c2ccccc2)=Nc2ccc(Br)cc2N1,inactive: -8.78%,–
CCN(CC)C(=O)C1CCCc2c1[nH]c1ccc(Cl)cc21 (stereo not given),–,"inconclusive [inhibitor, partial curve]"
CCCn1c(N)c(C(=O)CSc2nnc(-c3c[nH]c4ccccc34)n2C2CC2)c(=O)[nH]c1=O,inactive: 2.97%,–
CC1(C(=O)NCc2ccc(C(F)(F)F)cc2)CCN1C1Cc2ccccc2C1 (stereo not given),–,"inconclusive [inhibitor, partial curve]"
O=Cc1cc(N=Nc2ccccc2Cl)ccc1O,–,"inconclusive [inhibitor, partial curve]"
O=C(COc1ccc(Cl)cc1Cl)c1ccc[nH]1,–,"inconclusive [inhibitor, full curve]"
NS(=O)(=O)c1ccc(NC2=CC(=O)C(=O)c3ccccc32)cc1,–,"inconclusive [inhibitor, single point]"
CC(C)C1Nc2ccc(S(N)(=O)=O)cc2C2C=CCC21 (stereo not given),inactive: -8.49%,–

Structure (SMILES),"activity, negative = inhibition",Potency
CCc1[nH]nc2c1C(C1C=CCCC1)C(C#N)=C(N)O2 (stereo not given),–,"inconclusive [inhibitor, partial curve]"
O=S1(=O)CCOC[C@H](CC2CCCCC2)N1Cc1cccc(C(F)(F)F)c1,–,"inconclusive [inhibitor, full curve]"
O=C(Cn1c(C(=O)N2CCN(C3CCCCC3)CC2)cc2sccc21)c1ccccc1,inactive: -2.94%,–
O=C(NCc1ccco1)c1cc(-c2ccc(F)cc2)on1,inactive: -4.61%,–
COc1ccc([C@@H]2C[C@H](c3ccccc3)Oc3cc(C)cc(C)c32)cc1,inactive: 3.42%,–
COc1ccc(OC)c(C(C(=O)NC2CCCCC2)N(Cc2ccco2)C(=O)c2ccccn2)c1 (stereo not given),–,"inconclusive [inhibitor, single point]"
CCCCC[C@H](C)N1C[C@@H](COCc2ccccc2)Oc2cc(N3CC[C@H](O)C3)ccc2S1(=O)=O,–,"inconclusive [inhibitor, full curve]"
COc1nc(-c2ccc(Cl)cc2Cl)nc2ccccc12,–,"inconclusive [inhibitor, full curve, poor fit]"
Cc1ccc(C(C)(C)C)cc1S(=O)(=O)N1CC(=O)Nc2ccccc21,–,"inconclusive [inhibitor, partial curve]"
COC(=O)CC1COc2ccccc2N1S(=O)(=O)c1ccc(Br)cc1 (stereo not given),–,"inconclusive [inhibitor, partial curve]"
CCOC(=O)c1c2c(n(-c3ccc(OC)cc3)c1C)C(=O)C(=O)c1ccccc1-2,–,"inconclusive [inhibitor, single point]"
Cc1ccc2c(c1)N(Cc1cccc(F)c1)C(=O)C(C)O2 (stereo not given),–,"inconclusive [inhibitor, partial curve]"
COc1ccc(C(Cl)=C(c2ccc(OC)cc2)c2ccc(OC)cc2)cc1,–,"inconclusive [inhibitor, full curve]"
O=C(O)CCn1cc(/C=C2\NC(=S)N(c3ccccc3)C2=O)c(-c2ccc(Br)cc2)n1,–,"inconclusive [inhibitor, partial curve]"
COc1cc(S(=O)(=O)N2CCN(C(=O)c3ccco3)CC2)ccc1Cl,–,"inconclusive [inhibitor, single point]"
COc1cc(/C=N/NC(=O)CCn2cnc(-c3ccccc3)c2-c2ccccc2)ccc1O,–,"inconclusive [inhibitor, partial curve]"
COc1cc(CCN(C(C)=O)C2C(=O)Nc3ccccc3N=C2c2ccc3c(c2)OCO3)cc(OC)c1 (stereo not given),inactive: 12.9%,–
CC(Sc1nc2ccccc2s1)C(=O)N(C)Cc1ccccc1 (stereo not given),–,"inconclusive [inhibitor, partial curve]"
O=C1C(=O)c2ccccc2C([O-])=C1[n+]1ccccc1,inactive: 0.945%,–
COC(=O)c1c(NC(=S)NN2CCN(C)CC2)sc2c1CCC(C)C2 (stereo not given),–,"inconclusive [inhibitor, partial curve]"
O=C(O)CC1Sc2nc3ccccc3n2C1=O (stereo not given),–,"inconclusive [inhibitor, single point]"
c1ccc(-c2nc3ccccc3c3nc4ccccc4n23)cc1,inactive: -5.82%,–
